In one assay the test system is HSkMC. Nature of the assay: cytotoxicity call (relative viability < 0.9). The settings on record: 10 µM.
For a further assay, the system named is HepG2. Kind of assay: cytotoxicity call (relative viability < 0.9). As to conditions: 10 µM.
A further assay has as its system S. aureus RN4220. Kind of assay: growth inhibition call (relative growth <= 0.2). The settings on record: 50 µM.

The source of these data is the antibiotic and cytotoxicity screens of Wong et al. (2023).

Molecules are shown by their SMILES. This is one part of the list.

As for `C[C@H]1CN([C@@H](C)CO)S(=O)(=O)c2ccc(C#Cc3ccccc3)cc2O[C@@H]1CN(C)C(=O)CN(C)C`, the cytotoxicity call in the assay on HSkMC and with HepG2 was “inactive” each time. The growth inhibition call in the assay on S. aureus RN4220 is “inactive”.

With `C[C@H]1CN([C@@H](C)CO)C(=O)Cc2cc(NC(=O)Cc3cn(C)c4ccccc34)ccc2O[C@H]1CN(C)C(=O)Nc1cccc2ccccc12`, the cytotoxicity call in the assay on HSkMC and in the assay on HepG2 was “inactive” throughout. For the same compound, the growth inhibition call with S. aureus RN4220 was “inactive”.

As to `Cc1ccc(Cc2nc(-c3ccc(Cl)cc3)cs2)cc1`, in the assay with HSkMC, the cytotoxicity call is “inactive”. Moreover, the cytotoxicity call in the assay with HepG2 is “active”. In the assay with S. aureus RN4220, the growth inhibition call was “inactive”.

With `Cc1noc(C)c1NC(=O)Nc1cccc2c1O[C@@H](CN(C)S(=O)(=O)c1ccccc1)[C@@H](C)CN([C@H](C)CO)C2=O`, the cytotoxicity call in the assay on HSkMC and in the assay with HepG2 was “inactive” throughout. Further, the growth inhibition call with S. aureus RN4220 was “inactive”.

As to `CC(C)CS(=O)(=O)C1CN(S(C)(=O)=O)C1`, the cytotoxicity call in the assay on HSkMC and in the assay on HepG2 was “inactive” in each case. The growth inhibition call in the assay on S. aureus RN4220 was “inactive”.

As to `CCCC#Cc1cnc2c(c1)C(=O)N([C@@H](C)CO)C[C@H](C)[C@H](CN(C)S(=O)(=O)c1cn(C)cn1)O2`, the cytotoxicity call with HSkMC and in the assay with HepG2 was “inactive” in each case. The growth inhibition call in the assay on S. aureus RN4220 was “inactive”.

On to `CC(C)(C)c1cccc(N)c1`, for which the cytotoxicity call with HSkMC and in the assay on HepG2 was “inactive” throughout. Also, the growth inhibition call with S. aureus RN4220 is “inactive”.

As for `C[C@@H]1CN([C@@H](C)CO)C(=O)c2cc(NS(=O)(=O)c3ccccc3)ccc2O[C@@H](C)CCCCO[C@H]1CN(C)C(=O)CCC(F)(F)F`, the cytotoxicity call with HSkMC and with HepG2 was “inactive” each time. Also, in the assay on S. aureus RN4220, the growth inhibition call is “inactive”.

As to `COc1cccc(S(=O)(=O)N(C)C[C@@H]2Oc3ncc(C#CCN(C)C)cc3C(=O)N([C@@H](C)CO)C[C@H]2C)c1`, the cytotoxicity call in the assay on HSkMC (human skeletal muscle cells) and in the assay on HepG2 was “inactive” each time. Further, the growth inhibition call in the assay on S. aureus RN4220 was “inactive”.

On to `C[C@H](CO)N1C[C@H](C)[C@H](CN(C)S(=O)(=O)c2cn(C)cn2)OCCCC[C@H](C)Oc2ccc(NS(=O)(=O)c3cn(C)cn3)cc2C1=O`, for which the cytotoxicity call in the assay with HSkMC and in the assay with HepG2 was “inactive” throughout. Besides, the growth inhibition call with S. aureus RN4220 was “inactive”.
